Among all 310,000 compounds or so, about 2,200 (0.71%) showed an effect of 50% or more. Effects have a minus sign here. The list shows a part of the results.
molecular target: human ether-à-go-go-related gene (hERG) potassium channel (human, UniProt Q12809); test: primary screen, population patch clamp on CHO cells stably expressing hERG
Sequence (Q12809 whole entry, looked up): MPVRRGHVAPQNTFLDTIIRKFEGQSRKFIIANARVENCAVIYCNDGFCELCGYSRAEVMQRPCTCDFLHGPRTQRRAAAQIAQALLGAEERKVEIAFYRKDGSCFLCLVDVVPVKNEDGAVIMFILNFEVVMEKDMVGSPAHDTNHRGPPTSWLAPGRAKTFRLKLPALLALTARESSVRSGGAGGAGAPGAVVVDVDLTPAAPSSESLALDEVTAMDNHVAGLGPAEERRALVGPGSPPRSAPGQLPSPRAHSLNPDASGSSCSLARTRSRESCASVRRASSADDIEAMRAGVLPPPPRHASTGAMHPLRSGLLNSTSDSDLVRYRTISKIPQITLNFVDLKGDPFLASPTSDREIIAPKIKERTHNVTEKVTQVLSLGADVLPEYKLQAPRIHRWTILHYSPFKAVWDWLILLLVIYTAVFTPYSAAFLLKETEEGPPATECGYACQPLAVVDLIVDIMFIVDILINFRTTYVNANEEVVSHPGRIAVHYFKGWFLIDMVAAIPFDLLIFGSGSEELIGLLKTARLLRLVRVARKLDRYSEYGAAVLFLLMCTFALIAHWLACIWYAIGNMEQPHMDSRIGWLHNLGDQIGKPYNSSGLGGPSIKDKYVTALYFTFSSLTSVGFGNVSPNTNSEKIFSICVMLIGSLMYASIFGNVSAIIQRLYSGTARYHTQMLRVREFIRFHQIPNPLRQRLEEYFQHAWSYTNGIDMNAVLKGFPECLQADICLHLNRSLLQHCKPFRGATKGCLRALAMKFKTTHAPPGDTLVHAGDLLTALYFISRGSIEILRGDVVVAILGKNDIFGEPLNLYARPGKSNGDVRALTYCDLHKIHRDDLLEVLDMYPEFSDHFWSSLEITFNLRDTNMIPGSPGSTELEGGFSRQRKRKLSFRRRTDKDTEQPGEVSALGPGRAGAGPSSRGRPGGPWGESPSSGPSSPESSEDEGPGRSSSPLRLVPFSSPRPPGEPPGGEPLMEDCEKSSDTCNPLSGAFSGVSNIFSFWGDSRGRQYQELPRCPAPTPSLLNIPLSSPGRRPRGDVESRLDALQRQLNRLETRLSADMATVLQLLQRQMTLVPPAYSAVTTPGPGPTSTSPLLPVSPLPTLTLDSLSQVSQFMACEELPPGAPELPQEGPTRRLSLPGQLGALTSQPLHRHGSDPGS

Row | SMILES | hERG current change (%, negative = inhibition) at 1uM [%]
1 | C=CCNc1cnn(-c2ccc(C)cc2)c(=O)c1Sc1ccc(C)cc1 | 13.8
2 | Cc1ccc(C(=O)N/C(=C\c2ccco2)C(=O)NCC2CCCO2)cc1C (stereo not shown) | 9.11
3 | O=c1[nH]c(=O)n(Cc2ccccc2)c2nc(-c3ccc(C(F)(F)F)cc3)n(CCO)c12 | 2.08
4 | CCCC(=O)Nc1ccc(C(N)=O)cc1 | 18.9
5 | CN(C)CCCN(C(=O)c1ccc(S(=O)(=O)N2CCc3ccccc3C2)cc1)c1nc2ccc(F)cc2s1.Cl | 10
6 | CCCCn1c(N)c(N(CCOC)C(=O)CN2CC=C(c3ccccc3)CC2)c(=O)[nH]c1=O | 10.3
7 | CCOC(=O)N1CCN(C(=O)c2oc3ccc(S(=O)(=O)N4CCCCC4)cc3c2C)CC1 | -8.53
8 | CC(C)C[C@H](NC(=O)C1CCC(CNC(=O)[C@@H]2CCCN2C(=O)OC(C)(C)C)CC1)C(=O)O (stereo partly shown) | 6.16
9 | CC(CC(=O)N1CCN(c2ccc(C(F)(F)F)cn2)CC1)n1ccnc1 (stereo not shown) | -12.7
10 | c1ccc(CSc2ncnc3c2sc2nc(N4CCOCC4)c4c(c23)CCCC4)cc1 | 10.8
11 | Cc1ccnc(N2CCCC(C(=O)NC3CC3)C2)n1 (stereo not shown) | 0.777
12 | Nc1ccccc1N=Cc1c(O)n(CCC2=CCCCC2)c(=O)[nH]c1=O | 10.6
13 | COc1cc(C(=O)N2CCN=C2c2ccccc2)cc(OC)c1OC | 11.9
14 | N#C/C(=C(/O)Cc1ccccc1)P(=O)(c1ccccc1)c1ccccc1 | 10.7
15 | COc1ccc(N2CC(O)=C(c3nc(-c4ccc(F)cc4)cs3)C2=N)cc1OC | -0.962
16 | CCNC(=O)CC1SC(=Nc2cccc(Cl)c2C)N(C)C1=O (stereo not shown) | 3.18
17 | C#CCOCCOCCOCCNc1nc(N2CCN(C(=O)[C@H](CCCCN)n3cc(C(N)CO)nn3)CC2)nc(N2CCN(C(=O)[C@H](CCC(=O)O)n3cc(C(N)[C@H](C)CC)nn3)CC2)n1.Cl (stereo partly shown) | 9.31
18 | CCOc1ccc(OCCOc2cccc(C(F)(F)F)c2)cc1 | 12.5
19 | COc1cc(/C=C2\S/C(=N/S(=O)(=O)c3ccc(C)cc3)NC2=O)c([N+](=O)[O-])cc1OC | -11.9
20 | O=C(O)CCC(=O)Nc1ccc(C(=O)OCC(=O)c2ccc(Cl)cc2Cl)cc1 | 10.8
21 | Cc1nnc(NC(=O)CSc2cn(CCNC(=O)c3ccccc3)c3ccccc23)s1 | 9.91
22 | CCOc1ccc(N(CC(=O)N2CCCCCC2)S(C)(=O)=O)cc1 | 14.9

Row | SMILES | hERG current change (%, negative = inhibition) at 1uM [%]
23 | Cc1ccc(F)cc1NC(=O)CSc1nnc(CNC(=O)c2ccco2)n1C | 1.14
24 | O=C(NC(=S)NCCc1ccccn1)c1ccco1 | 9.94
25 | O=C(c1ccc(Br)o1)N(c1ccccn1)C1CCCCC1 | 6.09
26 | CS(=O)(=O)c1ccc(C2=C(c3ccccc3)C(=O)OC2)cc1 | 2.93
27 | CC1(C)CC(=O)C(C=NCCN2CCN(C(=S)Nc3ccc(F)cc3)CC2)=C(O)C1 | -5.04
28 | COc1ccccc1C/C(N)=N/O | 5.42
29 | Cc1ccc(S(=O)(=O)Oc2cc(N)c3c(n2)CCC3)cc1 | 14.6
30 | Cl.NC(=O)c1c(NC(=O)Cc2ccccc2)sc2c1CCN(Cc1ccccc1)C2 | 8.53
31 | COc1ccc(-c2ccc(C)cc2)cc1[C@H]1[C@H]2C=CC[C@@H](C)[C@@H]2C(=O)N1Cc1ccccc1 | 15.6
32 | CN(C)c1ccnc(Nc2ccccc2)c1C#N | 11.6
33 | CCn1cc(CNC(=O)C2CCC(=O)N(C3CCCCCC3)C2)cn1 (stereo not shown) | 16
34 | O=C(Nc1ccc(F)c([N+](=O)[O-])c1)C1CC(=O)N(Cc2ccccc2)C1 (stereo not shown) | -4.33
35 | O=C(Oc1c(-c2ccccc2)c(=O)n2c3c(cccc13)CC2)c1ccc(Cl)cc1 | 5.43
36 | Cc1c(C(=O)OC(C)C(C)C[N+](C)(C)C)oc2ccccc12.[I-] (stereo not shown) | 14.4
37 | CCCC1=Nc2cc(C(=O)NCCCOCC)ccc2Sc2ccccc21 | 7.93
38 | COc1cc(C(=O)Oc2c(CN3CCOCC3)cc(Cl)c3cccnc23)cc(OC)c1OC | -2.07
39 | CCOc1ccc(N(CC(=O)N/N=C/c2ccccn2)S(=O)(=O)c2ccc(Cl)cc2)cc1 | 10.4
40 | Cn1nc(Oc2nc(N3CCOCC3)nc(N3CCOCC3)n2)ccc1=O | 0.746
41 | CCOC(=O)C1C(=O)N(C(=O)c2ccc(OC)cc2)CC1c1ccccc1 (stereo not shown) | 13.4
42 | CCCSc1oc(-c2ccco2)nc1S(=O)(=O)c1ccccc1 | -10.1
43 | Cn1c(=O)c2[nH]c(-c3ccccc3Cl)c(O)c2n(C)c1=O | 3.49

From PMC4336329 (PLoS ONE, 2015)
